The results in this text go back to patent US20230257469A1 (SINOCELLTECH, published 2023).

Assay [1] has as its target T1, recombinant human TGF-β1 protein (human, UniProt P01137 part only).
T1 construct: the ELISA and cell assays say only TGF-β1 protein; also called TGF-β1 factor
Briefly: ELISA on coated TGF-β1 according to Example 3.4.

Assay [2] concerns the target T1, recombinant human TGF-β1 protein. Briefly: ELISA; TGF-β1 coated at 2 µg/mL, fusion protein titrated. On the technique in general: In an ELISA, binding on a coated surface is turned into a signal by an enzyme label.
Assay [3] has as its target T2, Recombinant human EGFR-His protein (human, UniProt P00533 part only).
T2 construct: Bought protein; also called recombinant human EGFR protein; human EGFR protein; not shown: His tag
In words: BLI (Fortebio OctetRED96e), biotinylated recombinant human EGFR protein, fit over several concentrations. Background: In BLI a coated tip is dipped into the sample, and binding shifts an interference pattern.

Assay [4] addresses T1, recombinant human TGF-β1 protein. Briefly: BLI (Fortebio OctetRED96e), biotinylated recombinant human TGF-β1 protein, fit over several concentrations.
For another assay, the target named is T3, TGF-β3 protein (UniProt P10600 301-412).
T3 sequence (looked up): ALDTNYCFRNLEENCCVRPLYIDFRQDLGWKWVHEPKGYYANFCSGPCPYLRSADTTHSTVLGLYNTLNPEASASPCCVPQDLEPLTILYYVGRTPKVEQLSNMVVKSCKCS
In words: ELISA; TGF-β3 coated at 2 µg/mL, fusion protein titrated.

T1 sequence (P01137 279-390 limits assumed): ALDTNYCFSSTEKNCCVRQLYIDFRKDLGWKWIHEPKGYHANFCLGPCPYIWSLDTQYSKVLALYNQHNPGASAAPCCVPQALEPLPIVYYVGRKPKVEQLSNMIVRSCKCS

B1: X/TGFβR2 fusion protein 24 (Ramucirumab, full length TGFβR2 ECD) (other)
heavy: EVQLVQSGGGLVKPGGSLRLSCAASGFTFSSYSMNWVRQAPGKGLEWVSSISSSSSYIYYADSVKGRFTISRDNAKNSLYLQMNSLRAEDTAVYYCARVTDAFDIWGQGTMVTVSS[left out - human IgG1 constant region]GGGSGGGGSGGGGSGGGGSIPPHVQKSVNNDMIVTDNNGAVKFPQLCKFCDVRFSTCDNQKSCMSNCSITSICEKPQEVCVAVWRKNDENITLETVCHDPKLPYHDFILEDAASPKCIMKEKKKPGETFFMCSCSSDECNDNIIFSEEYNTSNPD
light: DIQMTQSPSSVSASIGDRVTITCRASQGIDNWLGWYQQKPGKAPKLLIYDASNLDTGVPSRFSGSGSGTYFTLTISSLQAEDFAVYFCQQAKAFPPTFGGGTKVDIKRTVAAPSVFIFPPSDEQLKSGTASVVCLLNNFYPREAKVQWKVDNALQSGNSQESVTEQDSKDSTYSLSSTLTLSKADYEKHKVYACEVTHQGLSSPVTKSFNRGEC
notes: Signal peptide of 19 residues left out; limits counted from the printed segments
Turning to B1, in assay [1], the binding result is “binds”.

B2: X/TGFβR2 fusion protein 25 (Ramucirumab, ECD delete (6-26)) (other)
heavy: EVQLVQSGGGLVKPGGSLRLSCAASGFTFSSYSMNWVRQAPGKGLEWVSSISSSSSYIYYADSVKGRFTISRDNAKNSLYLQMNSLRAEDTAVYYCARVTDAFDIWGQGTMVTVSS[left out - human IgG1 constant region]GGGSGGGGSGGGGSGGGGSIPPHVLCKFCDVRFSTCDNQKSCMSNCSITSICEKPQEVCVAVWRKNDENITLETVCHDPKLPYHDFILEDAASPKCIMKEKKKPGETFFMCSCSSDECNDNIIFSEEYNTSNPD
light: DIQMTQSPSSVSASIGDRVTITCRASQGIDNWLGWYQQKPGKAPKLLIYDASNLDTGVPSRFSGSGSGTYFTLTISSLQAEDFAVYFCQQAKAFPPTFGGGTKVDIKRTVAAPSVFIFPPSDEQLKSGTASVVCLLNNFYPREAKVQWKVDNALQSGNSQESVTEQDSKDSTYSLSSTLTLSKADYEKHKVYACEVTHQGLSSPVTKSFNRGEC
notes: as for B1
B2: in assay [1], the binding result is given as “binds”.

B3: EGFR antibody/TGFβR2 fusion protein 6 (ECD delete (6-26)) (other)
heavy: EVQLVQSGAEVKKPGATVKISCKVSGYTFTTYYTHWVKQAPGKGLEWIGWIYPGDVNTKYNEKFKGRVTLTADTSTDTAYMELSSLRSEDTAVYYCAREDPGSNYFDYWGQGTLVTVSS[left out - human IgG1 constant region]GGGSGGGGSGGGGSGGGGSIPPHVLCKFCDVRFSTCDNQKSCMSNCSITSICEKPQEVCVAVWRKNDENITLETVCHDPKLPYHDFILEDAASPKCIMKEKKKPGETFFMCSCSSDECNDNIIFSEEYNTSNPD
light: DIQMTQSPSSLSASVGDRVTITCRASENIYYSLAWYQQKPGKAPQLLIYITDGLADGVPSRFSGSGSGTDYTLKIDSLQPEDFATYYCKQSYDVPLTFGGGTKVEIKRTVAAPSVFIFPPSDEQLKSGTASVVCLLNNFYPREAKVQWKVDNALQSGNSQESVTEQDSKDSTYSLSSTLTLSKADYEKHKVYACEVTHQGLSSPVTKSFNRGEC
notes: Expressed in HEK-293 cells (fut8 knockout)
For B3, the EC50 in assay [2] was 0.091 nM. In assay [3], the Kd was found to be 0.00877 nM, the off-rate constant (koff) was determined as 1.47e-05 s⁻¹ and the kon was found to be 1.68e+06 M⁻¹ s⁻¹. In assay [4], the Kd amounted to 0.0961 nM, the koff is 0.000147 s⁻¹ and the kon turned out to be 1.53e+06 M⁻¹ s⁻¹. The molecule further had an EC50 with TGF-β3 protein of 0.102 nM.

B4: EGFR antibody/TGFβR2 fusion protein 1 (full-length TGFβR2 extracellular domain) (other)
heavy: EVQLVQSGAEVKKPGATVKISCKVSGYTFTTYYTHWVKQAPGKGLEWIGWIYPGDVNTKYNEKFKGRVTLTADTSTDTAYMELSSLRSEDTAVYYCAREDPGSNYFDYWGQGTLVTVSS[left out - human IgG1 constant region]GGGSGGGGSGGGGSGGGGSIPPHVQKSVNNDMIVTDNNGAVKFPQLCKFCDVRFSTCDNQKSCMSNCSITSICEKPQEVCVAVWRKNDENITLETVCHDPKLPYHDFILEDAASPKCIMKEKKKPGETFFMCSCSSDECNDNIIFSEEYNTSNPD
light: DIQMTQSPSSLSASVGDRVTITCRASENIYYSLAWYQQKPGKAPQLLIYITDGLADGVPSRFSGSGSGTDYTLKIDSLQPEDFATYYCKQSYDVPLTFGGGTKVEIKRTVAAPSVFIFPPSDEQLKSGTASVVCLLNNFYPREAKVQWKVDNALQSGNSQESVTEQDSKDSTYSLSSTLTLSKADYEKHKVYACEVTHQGLSSPVTKSFNRGEC
notes: Antibody-receptor fusion: EGFR-HPA8 heavy chain without C-terminal lysine, (G4S)4 linker, TGFβR2 ECD
Turning to B4, in assay [4], the Kd worked out at 0.173 nM, the koff came to 0.000251 s⁻¹ and the kon turned out to be 1.45e+06 M⁻¹ s⁻¹.

By EC50 is commonly meant the concentration needed to bring the measured effect to its halfway point. Broadly, the Kd is the concentration at which binding is half-saturated. One may read the koff as a measure of how fast the partners let go of each other. The term kon denotes the rate constant with which the complex forms.
